The whole screen tested about 360,000 compounds, of which about 2,600 (0.72%) were called active. Inconclusive results, whose numbers are uncertain, are shown with a selection of clear calls. Calls follow the shape of the dose curve; as a rule, active = well fitted inhibition curve with a large enough effect; inconclusive = small, poorly fitted or top-dose-only effect; inactive = no such curve, though single readings can be large or run the other way. Potencies of inconclusive entries are doubtful fits and often do not repeat.
Test: Primary qHTS for Inhibitors of ATXN expression; also: nearly all actives have a fitted effect of over 55% in size
Conditions: HEK-293 ATXN2-luciferase reporter, luminescence, 24 h; activity change, negative = inhibition: at 57 µM (top of the series)
Method in brief: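 qHTS (up to 57 uM final) was run with 24 h compound exposure of reporter cells at 37 °C. Each well was multiplexed: SteadyGlo luminescence measured ATXN2-luciferase expression after a fluorogenic Gly-Phe-AFC viability readout (25 uM final).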
% is scaled to controls: 0 for no effect and ±100 for the full control effect; potency is read from the fitted curve at half-maximal effect; tags tell the direction and shape of the fitted curve.

Activity change, negative = inhibition, inactive:
O=C(C1CCCN(S(=O)(=O)c2ccc(Cl)cc2)C1)N(Cc1cccs1)C1CC1 (configuration not stated) -19.6%
O=C(Nc1sc2c(c1C(=O)O)CCCCC2)c1ccco1 -3.36%
COc1ccc(OC)c(C2C(C#N)=C(N)Oc3c2c(C)nn3-c2cccc(Cl)c2)c1 (configuration not stated) -2.17%
COc1cc(-c2cc(NC=O)c3ncc(-c4ccc(C(C)=O)cc4)n3c2)ccc1O -4.89%
COc1ccc(-n2cnc3cc(C(=O)NCC4CCCO4)ccc32)cc1 (configuration not stated) 0.463%
CCN(CC)c1ccc(/C=C2/SC(=O)N(C(C)C)C2=O)o1 -19.4%
Cc1ccc(-c2cccc(C3CC=CC4C3C(=O)N(Cc3ccccc3)C4c3cc(C)ccc3F)c2)cc1 (configuration not stated) 12.5%
CCNC(=S)N1CCN(c2nc(-c3cccc(OC)c3)cs2)CC1 144%
CC(=O)c1cccc(NC(=O)COc2ccccc2C(=O)c2cc(C#N)c(=O)n(C3CCCCC3)c2)c1 6.22%
Cc1ccc(-n2c(C)cc(C(=O)COC(=O)c3c(C)noc3C)c2C)cc1 27.5%
CCC(C)NC(=O)c1ccc2c(c1)N=C(C)c1cc(C)ccc1S2 (configuration not stated) -19.1%
O=C(Nc1cccc2c1C(=O)NC2=O)c1ccccc1[N+](=O)[O-] -14.2%
CSc1sccc1/C=N/O -7.07%
CCCn1nc(C(=O)NC2CC2)c2ccccc2c1=O 4.13%
Cc1nc2ccc(S(=O)(=O)Nc3ccc(-c4nc5cccnc5s4)cc3)cc2s1 4.19%
CN1CCN(C(CNC(=O)Nc2ccc(Cl)cc2)c2ccc(F)cc2)CC1 (configuration not stated) -1.49%
O=C(O)CCC(=O)N1CCN(c2cccc(Cl)c2)CC1 4.06%
CN1C(=O)c2cccc3c(S(=O)(=O)NCCc4ccccc4)ccc1c23 -3.96%
COC(CNC(=O)CNC(=S)N(Cc1ccccc1)Cc1cccs1)OC -13%

Potency, active:
CCc1cc(-c2[nH]ncc2-c2ccc3c(c2)OCO3)c(O)cc1O 11.2 µM
CCc1c(C)sc(NC(=O)c2cc(-c3cc(OC)ccc3OC)on2)c1C#N 14.1 µM
CCC(C)Cn1c(O)cc2nn(-c3nc4ccccc4s3)c(=O)c-2c1C (configuration not stated) 14.1 µM
Cc1cc(C(=O)CN2C(=O)c3ccccc3S2(=O)=O)c(C)n1CC1CCCO1 (configuration not stated) 0.501 µM
CC(=O)[C@]1(O)Cc2c(O)c3c(c(O)c2[C@@H](O[C@H]2C[C@H](N)[C@@H](O)[C@H](C)O2)C1)C(=O)c1ccccc1C3=O 0.137 µM
CCS(=O)(=O)c1cccc(-c2cc(C(=O)NC3CCN(C)CC3)c(C)c3[nH]c4ncc(C)cc4c23)c1 1.93 µM
CN(C)c1ccc(C=c2c3ccccc3n3c2c2ccccc2[n+]3C)cc1 6.31 µM
COc1cccc(C(=O)Oc2c(CN3CCOCC3)cc(Cl)c3cccnc23)c1 10 µM

Potency, inconclusive:
COC(=O)c1sc2nc(C)cc(-c3ccccc3)c2c1N 5.01 µM [inhibitor, partial curve, poor fit]
CCN1CCN(c2cc(-c3ccccc3)nc3cc(-c4cccc(F)c4)nn23)CC1 25.1 µM [inhibitor, partial curve, poor fit]
Clc1ccc(C2(c3ccc(-c4cn[nH]c4)cc3)CCNCC2)cc1 34.3 µM [inhibitor, single point]
O=C(N/N=C/c1cc(Cl)cc([N+](=O)[O-])c1O)c1ccc2c(c1)OCO2 15.8 µM [inhibitor, partial curve]
COCCCNC(=O)c1ccc(Cn2c(=O)c3ccccc3n(Cc3ccccc3C#N)c2=O)cc1 39.8 µM [inhibitor, single point]
CCCCn1c(NC(=O)c2ccccc2)c(C#N)c2nc3ccccc3nc21 20 µM [inhibitor, partial curve]
CSc1ccccc1CNc1nc(NCC2CC2)nc2ccsc12 15.8 µM [inhibitor, partial curve]
CNS(=O)(=O)c1cc(-c2nnc(Nc3cc(C)ccc3C)c3ccccc23)ccc1C 39.8 µM [inhibitor, single point]
CC(C)(C)c1ccc(CSc2nnc(-c3ccccn3)n2Cc2ccco2)cc1 39.8 µM [inhibitor, single point]
O=C(NC(NC(=S)Nc1ccc(Cl)c(Cl)c1)C(Cl)(Cl)Cl)c1ccco1 (configuration not stated) 39.8 µM [inhibitor, single point]
c1ccc(-c2cc3nc(NCC4CC4)nc(NCC4CCCCC4)c3s2)cc1 20 µM [inhibitor, partial curve, poor fit]
COC(=O)N/N=C/c1cn(CC(C)COc2ccccc2)c2ccccc12 (configuration not stated) 35.5 µM [inhibitor, single point]
Cc1cc(C(=O)C(=O)Nc2nnc(C(C)C)s2)c(C)n1-c1ccccc1 10 µM [inhibitor, partial curve, poor fit]
O=C1NC[C@H](Cc2ccccc2)N(CC2CCN(CCc3ccc(-c4ccccc4)cc3)CC2)C1=O 28.2 µM [inhibitor, partial curve, poor fit]
COc1cc(NC(=O)COC(=O)c2[nH]c(C)c(C(C)=O)c2C)cc(OC)c1 10 µM [inhibitor, partial curve, poor fit]
COc1ccc2c(-c3ccc(S(N)(=O)=O)cc3)c(-c3ccc(S(C)(=O)=O)cc3)sc2c1 35.5 µM [inhibitor, single point]
COc1ccc(O)c(/C=N/Nc2nc(Nc3ccccc3)nc(-n3nc(C)cc3C)n2)c1 14.1 µM [inhibitor, partial curve, poor fit]
CC1CCc2cc(F)ccc2N1C(=O)CCl (configuration not stated) 37.7 µM [inhibitor, single point]
CC(C)(C)C(=O)Nc1ccc(Sc2ccc([N+](=O)[O-])cc2)cc1 31.6 µM [inhibitor, partial curve, poor fit]
CCOC(=O)/C(=C\c1ccc(Cl)cc1)c1nc2sc(C)c(C)c2c(=O)[nH]1 35.5 µM [inhibitor, single point]
NC1=NC[C@H](CC2CCCCC2)N1CCc1cc(C(F)(F)F)cc(C(F)(F)F)c1 31.6 µM [inhibitor, single point]
COc1cccc(NC(=O)C(=O)NCCc2csc3nc(-c4ccccc4C)nn23)c1 35.5 µM [inhibitor, partial curve, poor fit]
CCCc1nc2sc3c(c2c(=O)n1NC(=O)CCCl)CCCC3 39.8 µM [inhibitor, single point]
O=C(Cc1ccc(S(=O)(=O)N2CCOCC2)s1)Nc1cc(C(F)(F)F)cc(C(F)(F)F)c1 31.6 µM [inhibitor, single point]
N/C(=N\OC(=O)Cc1ccc([N+](=O)[O-])cc1)c1ccccn1 26.7 µM [inhibitor, single point]
C[C@@H]1CN([C@@H](C)CO)C(=O)Cc2cc(NC(=O)Nc3ccc(F)cc3)ccc2O[C@@H]1CN(C)Cc1ccc(Cl)c(Cl)c1 39.8 µM [inhibitor, single point]
CCOc1cc(CNCCO)cc(Br)c1OCc1cccs1 17.8 µM [inhibitor, partial curve]
C=CCn1c(C)cc(C(=O)CN2C(=O)c3ccccc3S2(=O)=O)c1C 2 µM [inhibitor, full curve, poor fit]
CN(C)C(=S)NC(=NCc1ccc([N+](=O)[O-])cc1)c1ccccc1 25.1 µM [inhibitor, partial curve, poor fit]
O=C(Nc1cccc(Cl)c1)c1ccc(NCCCN2CCOCC2)c([N+](=O)[O-])c1 14.1 µM [inhibitor, partial curve]
CN(C)c1cc[n+](CC(=O)c2ccc(Br)cc2)cc1 16.8 µM [inhibitor, partial curve, poor fit]
O=C1CN(C(=O)COc2ccc(Cl)cc2)C(c2ccc(F)cc2)c2cc(Br)ccc2N1 (configuration not stated) 31.6 µM [inhibitor, single point]
O=C1c2ccccc2S(=O)(=O)c2cc(N3CCOCC3)ccc21 22.4 µM [inhibitor, single point]
Cc1ccc(C(=O)N2N=C(c3ccc(Br)cc3)CC2c2ccccc2O)cc1 (configuration not stated) 37.7 µM [inhibitor, single point]
CCC1=C(OC(=O)N(CC)CC)N2C(=O)OC(=NCCc3c[nH]c4ccccc34)[C@]2(Cc2ccccc2)[C@H]2C1=CC[C@H]1C(=O)N(c3ccccc3)C(=O)[C@H]12 31.6 µM [inhibitor, partial curve]
COC(=O)c1sccc1N/N=C/c1cccc(OC)c1O 39.8 µM [inhibitor, single point]
COc1ccc([C@H]2CC(=O)C=C(c3ccc(Cl)c(C(F)(F)F)c3)C2)cc1OC 20 µM [inhibitor, partial curve]
CCC(C(=O)NCc1cccc(Br)c1)n1nc(C)c2c(C)n(-c3ccccc3)nc2c1=O (configuration not stated) 25.1 µM [inhibitor, single point]
ClC(/C=N/n1cnnc1)=C/c1ccccc1 28.2 µM [inhibitor, partial curve, poor fit]
COc1ccc(SC[C@H](Cc2ccccc2)N2CCN(CCc3ccccc3)CCC2=O)cc1 25.1 µM [inhibitor, single point]

From PubChem BioAssay AID1745845 (National Center for Advancing Translational Sciences (NCATS), 2022)
